Source: PMC4336329 (PLoS ONE, 2015)
Among all 310,000 compounds or so, about 2,200 (0.71%) showed an effect of 50% or more. Effects have a minus sign here. Some of the results follow.

molecular target: human ether-à-go-go-related gene (hERG) potassium channel (human, UniProt Q12809); test: primary screen, population patch clamp on CHO cells stably expressing hERG
Sequence (Q12809 whole entry, looked up): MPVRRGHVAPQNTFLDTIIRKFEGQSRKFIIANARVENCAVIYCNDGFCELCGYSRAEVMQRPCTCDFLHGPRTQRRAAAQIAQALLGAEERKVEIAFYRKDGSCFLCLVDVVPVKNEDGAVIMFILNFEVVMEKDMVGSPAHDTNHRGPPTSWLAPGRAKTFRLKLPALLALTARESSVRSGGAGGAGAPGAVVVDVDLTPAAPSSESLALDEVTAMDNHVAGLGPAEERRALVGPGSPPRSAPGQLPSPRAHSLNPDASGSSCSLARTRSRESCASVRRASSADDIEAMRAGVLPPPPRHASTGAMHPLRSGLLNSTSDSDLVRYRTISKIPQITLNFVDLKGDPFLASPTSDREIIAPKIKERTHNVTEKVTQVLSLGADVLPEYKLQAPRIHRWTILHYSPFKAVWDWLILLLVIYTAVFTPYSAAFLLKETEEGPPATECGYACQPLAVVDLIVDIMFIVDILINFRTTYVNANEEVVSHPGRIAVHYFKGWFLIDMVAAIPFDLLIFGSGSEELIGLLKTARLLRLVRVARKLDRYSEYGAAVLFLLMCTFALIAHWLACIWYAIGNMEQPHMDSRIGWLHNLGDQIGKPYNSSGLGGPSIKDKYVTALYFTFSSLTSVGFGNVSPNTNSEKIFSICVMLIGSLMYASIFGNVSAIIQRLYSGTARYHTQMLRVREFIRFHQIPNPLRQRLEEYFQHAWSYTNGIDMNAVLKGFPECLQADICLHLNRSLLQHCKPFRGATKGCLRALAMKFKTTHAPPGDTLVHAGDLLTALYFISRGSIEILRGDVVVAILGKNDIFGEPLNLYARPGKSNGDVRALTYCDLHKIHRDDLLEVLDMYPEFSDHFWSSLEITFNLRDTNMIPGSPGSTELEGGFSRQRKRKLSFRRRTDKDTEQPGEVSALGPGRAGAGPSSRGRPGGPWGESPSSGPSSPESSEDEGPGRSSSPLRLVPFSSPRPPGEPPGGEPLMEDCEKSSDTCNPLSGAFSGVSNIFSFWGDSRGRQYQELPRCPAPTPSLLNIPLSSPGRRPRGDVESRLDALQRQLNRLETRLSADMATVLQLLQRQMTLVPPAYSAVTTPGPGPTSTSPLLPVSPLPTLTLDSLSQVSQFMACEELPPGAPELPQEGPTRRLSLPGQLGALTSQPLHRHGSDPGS

Compound | hERG current change (%, negative = inhibition) at 1uM
NC(=O)SCC(=O)Nc1ccc(Cl)c(Cl)c1 | -0.294%
CCOc1ccc(NC(=O)CCNC(=O)Cn2cnc3ccccc3c2=O)cc1 | 18.9%
Cc1cc(C)nc(SCc2nnc(SCC(=O)NCc3ccco3)n2-c2ccccc2)n1 | -9.04%
Cc1ccc(Cl)cc1NC(=O)COC(=O)C1CC1 | 5.65%
COc1ccc(NC(=O)c2n[nH]c(=O)c3ccccc23)cc1S(=O)(=O)N1CCCCC1 | 11.3%
O=C(Cn1nnc(-c2ccccc2)n1)N1CCN(c2ccc(F)cc2)CC1 | 7.89%
CCOC(=O)c1c(C)[nH]c(C)c1C(=O)CSc1nnc(-c2ccc(OC(F)F)cc2)o1 | 9.18%
Cc1ccc(-c2nc(CS(=O)CC(=O)NCc3ccco3)c(C)o2)cc1 (centres unmarked) | 11.5%
CCCNC(=O)CN(C)C(=O)c1n[nH]c2ccccc12 | -8.69%
COc1ccc(NC(=O)CSc2nnc3ccc(-c4cccnc4)nn23)c(OC)c1 | 10.2%
COc1cccc(C(=O)Nc2ccccc2OC(F)(F)F)c1 | 5.06%
CC(C)(C)C(=O)NCC12C=CC(O1)C1C(=O)N(c3ccccc3)C(=O)C12 (centres unmarked) | 8.36%
CSc1ccccc1NC(=S)NCc1ccc(Cl)cc1 | 6.28%
CSc1nc2ncc3c(n2n1)CC1c2ccccc2CCN1C3=O (centres unmarked) | -8.39%
COc1cc(/C=C/C(=O)O)cc(S(=O)(=O)N2CCc3ccccc3C2)c1OC | 11.8%
O=C(COC(=O)/C=C/c1ccc(Cl)cc1)NCCC1=CCCCC1 | 12.5%
CCCCN=c1sc(C(=O)OC)cc(=O)n1CCCC | 14.4%
O=C(CN1CCN(c2ccccc2F)CC1)Nc1ccc2c(c1)CCC2 | -3.97%
Cc1csc2nc(SCC(=O)Nc3ccccc3F)[nH]c(=O)c12 | 11.5%
O=C(Cn1nc(C(F)(F)F)c2c1CCCC2)NC1CCCC1 | -8.2%

Compound | hERG current change (%, negative = inhibition) at 1uM
C[C@H]1COC2=C1C(=O)C(=O)c1c2ccc2c1CCCC2(C)C | 6.53%
CN1CCC(N(C)S(=O)(=O)c2ccc(NC(=O)Cc3ccc(F)cc3)cc2)CC1 | 12.9%
Cc1nnc(SCC(=O)NC2CCCc3ccccc32)n1-c1ccccc1 (centres unmarked) | 4.51%
Cc1cc(Cl)nc(NC(=O)Nc2cccc(Cl)c2)n1 | 13%
COc1ccccc1NC(=O)NNC(=O)c1ccc(-c2ccccc2)cc1 | 4.08%
CCn1c(SCC(=O)Nc2ccccc2-c2ccccc2)nnc1-c1ccoc1C | -4.96%
O=C(C1CCN(S(=O)(=O)c2cccs2)CC1)N1CCCC(C(F)(F)F)C1 (centres unmarked) | 3.54%
CCSC1=C(C#N)C(c2cccc(Br)c2)CC(=O)N1 (centres unmarked) | 16.8%
COc1cccc(-c2nnc(NC(=O)c3cccc(F)c3)o2)c1 | 14.3%
COc1ccc(-c2[nH]ncc2CN2CCN(c3ccc(F)cc3)CC2)cc1 | -4.53%
C/C(Cn1nnc([N+](=O)[O-])n1)=N\NC(=O)c1ccc(O)cc1O | 8.33%
COc1cccc(N/N=C/c2cccc(Br)c2O)c1 | 8.9%
O=C(c1cccc(NC2=NC3CS(=O)(=O)CC3S2)c1)N1CCN(c2ncccn2)CC1 (centres unmarked) | 13.3%
CCOc1cc2nc(-c3ccc(OC)c(OC)c3)nc(NCCCN3CCOCC3)c2cc1OC | 4.87%
CC12C(=O)N(c3nccs3)C(=O)C1C1C=CC2C1 (centres unmarked) | 13.1%
CC(C)(C)NC(=O)COC(=O)c1ccccc1Nc1ccc(SC(F)F)cc1 | -1.3%
Cc1cc(O)c(-c2cc(C(=O)Nc3cccnc3)[nH]n2)cc1C | 14.8%
Cc1c(C(=S)Nc2ccccc2)cnn1-c1ccc([N+](=O)[O-])cc1 | 15.1%
CCOc1ccccc1NC(=O)c1csc(C)c1C | 3.97%
Cl.O=C1CN=C(Nc2ccc(Cl)cc2)N1c1ccccc1 | 16%

Compound | hERG current change (%, negative = inhibition) at 1uM
O=c1c2[nH]c3ccc(F)cc3c2ncn1CCN1CCN(Cc2ccccc2)CC1 | -31.6%
CC(=O)N/C(=C/c1ccc2c(c1)OCO2)C(=O)NCCO | 12.9%
CC(C)c1ccc(/C=N/NC(=O)c2ccccn2)cc1 | 0.552%
Cc1ccc(NC(=O)CCc2ccc(C)o2)cc1 | 7.21%
COCCn1ccc2c(OCC(=O)NCCc3ccccc3)cccc2c1=O | 0.744%
CCCCN(C(=O)CCn1c(=O)oc2ccccc21)c1ccccc1 | 10.8%
CC1CCCCC12NC(=O)N(CC(=O)Nc1ccc3[nH]c(=O)[nH]c3c1)C2=O (centres unmarked) | 16.6%
CC(=O)c1sc(NC(=O)c2ccc(C)cc2)nc1C | 9.09%
Cc1ccccc1OCCNCC(C)O.O=C(O)C(=O)O (centres unmarked) | 16.9%
O=C(COc1ccccc1Cl)Nc1cccc(S(=O)(=O)N2CCCC2)c1 | 2.26%
COc1ccc(NC(=S)Nc2cccc(Cl)c2Cl)cc1OC | 4.56%
O=C(Nc1ncc2c(n1)-c1ccccc1CC2)c1cccs1 | 4.34%
CCOc1ccc(/C=N/NC(=O)CC(=O)Nc2ccc(Cl)c(Cl)c2)cc1 | 3.55%
O=c1oc2cc(OCc3ccc(C(F)(F)F)cc3)ccc2cc1-c1ccccn1 | 6.31%
Cc1cc(Nc2cccc(Cl)c2)n2ncnc2n1 | 3.06%
O=C(Nc1cc([N+](=O)[O-])ccc1N1CCOCC1)c1cccs1 | 11%
Nc1nonc1C(=O)N/N=C/c1ccc(Br)o1 | 9.21%
N#Cc1cc2c(cc1NC(=O)CCn1cnnn1)OCO2 | 13%
CCN(Cc1nc2ccccc2c(=O)[nH]1)Cc1nc2cc(OC)c(OC)cc2c(=O)[nH]1 | 22%
